# Screen size: about 310,000 compounds; about 2,200 (0.71%) showed an effect of 50% or more. The effect is printed as a negative number. The list shows a part of the results.
# Target: human ether-à-go-go-related gene (hERG) potassium channel (human, UniProt Q12809)
# Assay: primary screen, population patch clamp on CHO cells stably expressing hERG
# Sequence of human ether-à-go-go-related gene (hERG) potassium channel (Q12809 whole entry, looked up): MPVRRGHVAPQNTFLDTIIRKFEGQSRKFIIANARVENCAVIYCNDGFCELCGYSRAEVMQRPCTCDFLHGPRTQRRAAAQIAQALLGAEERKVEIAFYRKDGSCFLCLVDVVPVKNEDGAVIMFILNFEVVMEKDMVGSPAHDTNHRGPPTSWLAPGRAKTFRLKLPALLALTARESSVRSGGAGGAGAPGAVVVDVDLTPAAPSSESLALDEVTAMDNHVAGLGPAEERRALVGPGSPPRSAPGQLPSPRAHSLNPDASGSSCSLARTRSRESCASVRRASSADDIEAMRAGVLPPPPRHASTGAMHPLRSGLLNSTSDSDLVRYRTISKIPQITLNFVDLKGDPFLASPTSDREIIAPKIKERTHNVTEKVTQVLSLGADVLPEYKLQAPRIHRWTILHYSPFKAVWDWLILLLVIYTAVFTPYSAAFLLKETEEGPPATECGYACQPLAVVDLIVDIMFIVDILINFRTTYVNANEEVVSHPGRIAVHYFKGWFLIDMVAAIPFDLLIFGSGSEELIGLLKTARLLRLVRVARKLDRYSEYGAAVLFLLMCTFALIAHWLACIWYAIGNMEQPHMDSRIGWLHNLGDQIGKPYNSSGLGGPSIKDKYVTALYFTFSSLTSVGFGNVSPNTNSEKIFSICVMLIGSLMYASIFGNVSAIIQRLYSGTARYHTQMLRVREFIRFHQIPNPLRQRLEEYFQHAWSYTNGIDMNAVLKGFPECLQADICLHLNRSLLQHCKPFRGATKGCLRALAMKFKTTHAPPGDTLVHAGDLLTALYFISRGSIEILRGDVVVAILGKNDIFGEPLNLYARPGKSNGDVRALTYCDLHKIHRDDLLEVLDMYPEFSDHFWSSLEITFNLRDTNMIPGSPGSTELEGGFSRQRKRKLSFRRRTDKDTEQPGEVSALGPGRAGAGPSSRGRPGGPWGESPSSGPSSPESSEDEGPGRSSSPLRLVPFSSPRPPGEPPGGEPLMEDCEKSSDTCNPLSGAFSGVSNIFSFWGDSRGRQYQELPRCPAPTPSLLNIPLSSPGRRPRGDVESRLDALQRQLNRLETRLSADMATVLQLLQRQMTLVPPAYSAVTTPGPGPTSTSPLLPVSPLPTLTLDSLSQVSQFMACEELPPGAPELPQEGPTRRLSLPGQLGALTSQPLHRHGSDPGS
row,Compound,"hERG current change (%, negative = inhibition) at 1uM [%]"
1,CCN1C(=O)[C@H]2[C@@H](c3ccc(-c4ccc(OC)cc4)cc3)N3CCC[C@@]3(C(=O)OC)[C@H]2C1=O.O=C(O)C(F)(F)F,11.6
2,CCN1CCCC1CN=Cc1c(O)n(-c2ccccc2)c(=O)c2ccccc12 (centres unmarked),-9.62
3,COc1ccc(C(=O)Nc2nnc(S(=O)(=O)N3CCCCCC3)s2)cc1OC,9.03
4,COc1cccc(-c2cc(C(F)(F)F)n3ncc(S(=O)(=O)c4ccccc4)c3n2)c1,-0.258
5,N/C(Cc1ccc(Cl)cc1)=N\OC(=O)C1CCCCC1,6.48
6,Cc1ccc(NC(=O)CN2C(=O)C(=O)N(C3CCCC3)C2=O)c(Cl)c1,11.1
7,CN(C(=O)CNC(=O)OCc1ccccc1)c1ccc(Br)cc1C(=O)c1ccccc1Cl,11.7
8,C=CCNc1nc(C(=O)OCC(=O)c2ccc(Cl)cc2)cs1,1.02
9,O=C(Nc1cccc(C(=O)O)c1)/C(=C\c1ccco1)NC(=O)c1ccccc1,11.4
10,CC1CCN(C(=S)Nc2ccc(SC(F)F)cc2)CC1,-31.7
11,COc1ccc(C)cc1NC(=O)COCC(=O)O,2.28
12,Cn1c(=O)c2c(nc(CN3CCN(C(=O)c4ccco4)CC3)n2Cc2ccc(F)cc2)n(C)c1=O,-21.5
13,Cn1c(=O)cc(C(=O)N/N=C/c2ccc(F)cc2)[nH]c1=O,10.7
14,Cc1ccc(S(=O)(=O)N2CCN(Cc3nc4ccccc4[nH]3)CC2)cc1C,2.08
15,O=C(COC(=O)C12CC3CC(CC(C3)C1)C2)Nc1ncc(Cl)cc1Cl,19.7
16,Brc1ccc2ncnc(NCc3ccccc3)c2c1,6.35
17,Cc1cc(C)cc(N(CC(=O)N2CCn3c2nc2ccccc23)S(=O)(=O)c2c(C)noc2C)c1,9.56
18,Cc1ccc(C(CC(N)=O)c2ccco2)cc1 (centres unmarked),-1.77
19,CC(O)c1nc(C(C)O)n(CC(=O)c2ccccc2)n1 (centres unmarked),19.8

row,Compound,"hERG current change (%, negative = inhibition) at 1uM [%]"
1,O=C(COC(=O)CN1C(=O)c2ccccc2C1=O)NC1CCCC1,21.7
2,CCCCN(CCCNC(=O)c1ccc2nc(N3CCOCC3)sc2c1)Cc1ccccc1,-29
3,C=CCSc1nc2ccccc2n2cnnc12,10.1
4,NC(=O)CN1C(=O)NC2(CCCc3sccc32)C1=O (centres unmarked),17
5,COc1ccc(S(=O)(=O)N2CCCC(N(C)CCc3ccccc3)C2)cc1OC (centres unmarked),-26.5
6,Cc1ccc(N2CC(C(=O)NCCS(=O)(=O)N3CCN(c4ccccc4)CC3)CC2=O)cc1 (centres unmarked),16.3
7,CCOc1ccc(C(=O)NCC(=O)OCC(=O)N2C(C)CCCC2C)cc1 (centres unmarked),10.4
8,Cc1[nH]n(-c2ccccc2)c(=O)c1C=Nc1ccc2[nH]c(=O)[nH]c2c1,12.3
9,Cc1csc2c(=O)[nH]cnc12,7.61
10,Cc1ccc(C(=O)Nc2ccccc2[N+](=O)[O-])cc1S(=O)(=O)N1CCOCC1,9.54
11,CCOc1ccccc1-c1nc(CN2CCN(C(=O)c3ccco3)CC2)c(C)o1,9.83
12,Cn1c(-c2ccc(F)cc2)cnc1NCc1ccc(C#N)cc1,-22.9
13,N#Cc1c(NC(=O)CSc2nnnn2C2CCCCC2)sc2c1CCCC2,-5.78
14,Cc1ccccc1OCC(=O)NCC(=O)N/N=C/c1cccc([N+](=O)[O-])c1,9.82
15,CCOC(=O)N1CCC(NC(=O)c2cc3c(-c4ccc(OC)c(OC)c4)nn(C)c3s2)CC1,12.3
16,Cc1cc(NC(=O)CCCN2C(=O)/C(=C/c3ccccc3Cl)SC2=S)no1,-1.02
17,COc1ccc(NC(=O)c2[nH]ncc2[N+](=O)[O-])cc1,12.2
18,O=C(CNS(=O)(=O)c1ccc(Br)s1)NC1CCCc2ccccc21 (centres unmarked),4.83
19,O=C(Nc1ccon1)c1ccc(S(=O)(=O)N2CCCCCC2)cc1,12.1

row,Compound,"hERG current change (%, negative = inhibition) at 1uM [%]"
1,Clc1ccc(-n2nnnc2SCc2c(-c3ccccc3)nc3sccn23)cc1,7.74
2,Cc1ccc(-n2nc3c(=O)n(CC(=O)NCc4cccs4)nc(C)c3c2C)cc1,13
3,Oc1ccc2ccc3cccc[n+]3c2c1.[I-],19.3
4,COc1cccc(CN(C)CC(=O)Nc2ccccc2C(=O)Nc2ccccc2)c1,9.94
5,COc1ccc(CNC(=O)CCN2C(=O)c3ccncc3C2=O)cc1OC,12.5
6,O=C(NCc1cccnc1)C(=O)Nc1cc2c3c(c1)CC(=O)N3CCC2,9.67
7,CC(=O)c1c(C)n([O-])c2cc(F)c(F)cc2[n+]1=O,14.1
8,CS(=O)(=O)Nc1cc2c3c(c1)CCC(=O)N3CCC2,23.8
9,Cc1c(/C=C(\CC(=O)O)c2nc3ccccc3s2)cc(C#N)n1C,13.8
10,CCn1c(SCCN2CCOCC2)nc2c1c(=O)n(C)c(=O)n2C,18.2
11,CCOc1ccccc1/C=C(\C#N)C1=CCCC1,16
12,COc1cc(SC)ccc1C(=O)Nc1cccc(C)n1,2.34
13,CCOc1ccc(NC(=O)NNC(=O)c2ccc(Cl)cc2Cl)cc1,11
14,Cc1ccc(C)c(OCC(O)CN2CCN(CCN3C(=O)c4cccc5cccc(c45)C3=O)CC2)c1.Cl (centres unmarked),13.5
15,CCn1c(NC(=O)c2cccs2)nc2ccccc21,3.61
16,Cc1onc(-c2ccccc2Cl)c1C(=O)OCC(=O)c1ccccc1,5.74
17,O=C(CN1CCN(S(=O)(=O)c2ccccc2)CC1)NC1CC1,22.8
18,O=C(Nc1ccc2nc(C3CC3)n(Cc3ccc(F)cc3)c(=O)c2c1)c1ccco1,8.35

# Reference: article PMC4336329 (PLoS ONE, 2015)
